Data from PubChem BioAssay (Tox21).
“And” between values parts separate entries of the source, which are not always exact repeats. Equal entries are not always repeated. The inconclusive results got no clear call from the source; some entries with a clear call stand among them for comparison. Potencies of inconclusive entries are left out as doubtful fits. The source made the active and inactive calls. The call rests on the fitted dose curve; in most records, active means well fitted cell-killing curve with a large enough effect in the repeat runs; inconclusive means weak or mixed curves; inactive means no such curve, though single readings can be large or run the other way.

experiment: qHTS assay to identify small molecule antagonists of the peroxisome proliferator-activated receptor delta (PPARd) signaling pathway - cell viability counter screen (AID 743213); details: PPARd-bla HEK293H viability, CellTiter-Glo luminescence, 17 h; viability change, negative = cytotoxic: at 62 µM (top of the series) unless noted; further: nearly all actives have a fitted effect of over 50% in size
How it was run: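 CellTiter-Glo was added to PPARd-bla HEK293H wells following 17 h compound treatment in the presence of 300 nM L165041. Luminescence was recorded after 30 min at room temperature.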
On the % scale 0 is the no-effect control and ±100 the full control effect; potency means the concentration at half of the fitted maximal effect; tags describe the fitted curve by direction and shape.

| Compound | Potency | viability change, negative = cytotoxic |
| --- | --- | --- |
| CCN1CCC2(CC1)COc1cc3c(cc12)N(C(=O)c1ccc(-c2ccc(-c4nnc(C)o4)cc2C)cc1)CC3 | active: 6.38 µM | – |
| [O]=[Cr](=[O])([OH])[O][Cr](=[O])(=[O])[OH] | active: 7.83 µM and active: 21.8 µM | – |
| N#Cc1c2ccccc2cc2ccccc12 | inactive | – |
| O=C(N[C@H]1N=C(c2ccccc2F)c2cccc3c2N(CC3)C1=O)c1cc2ccccc2[nH]1 | inconclusive [cytotoxic, partial curve] | – |
| C[C@@H]1O[C@@H](O[C@@H]2C=C3CC[C@@H]4[C@H](CC[C@]5(C)[C@@H](c6ccc(=O)oc6)CC[C@]45O)[C@@]3(C)CC2)[C@H](O)[C@H](O)[C@H]1O | active: 0.0119 µM | – |
| ClC1=C(Cl)[C@]2(Cl)[C@@H]3[C@H]4C[C@H]([C@@H]5O[C@H]45)[C@@H]3[C@@]1(Cl)C2(Cl)Cl | inconclusive [cytotoxic, single point] | – |
| CC1(C)[C@H](C(=O)O[C@H](C#N)c2cccc(Oc3ccccc3)c2)[C@@H]1/C=C(\Cl)C(F)(F)F | inconclusive [cytotoxic, full curve] | – |
| c1ccc2c(c1)cc1ccc3cccc4ccc2c1c34 | inconclusive [cytotoxic, full curve, poor fit] | – |
| CN(C)CCc1c[nH]c2ccc(O)cc12 | inactive | – |
| C[C@]12C=CC3=C4CCC(=O)C=C4CC[C@H]3[C@@H]1CC[C@@H]2O | inconclusive [cytotoxic, single point] | – |
| FC(F)C(F)(F)OCC(Cn1cncn1)c1ccc(Cl)cc1Cl (configuration not stated) | inconclusive [cytotoxic, full curve, poor fit] | – |
| CO/N=C(/C1=NOCCO1)c1ccccc1Oc1ncnc(Oc2ccccc2Cl)c1F | inconclusive [cytotoxic, single point] | – |
| OCCN(CCO)CCO | inconclusive [rising, partial curve, poor fit] | – |
| CCOP(=S)(OCC)O/N=C(\C#N)c1ccccc1 | inconclusive [rising, full curve] | inconclusive: 30.5% |
| CC(C)[C@@H](Nc1ccc(C(F)(F)F)cc1Cl)C(=O)OC(C#N)c1cccc(Oc2ccccc2)c1 (some centres not stated) | – | inconclusive: -33.4% [cytotoxic] |
| O=C(NC(=O)c1c(F)cccc1F)Nc1ccc(Oc2ccc(C(F)(F)F)cc2Cl)cc1F | – | inconclusive: -25.1% [cytotoxic] |
